# Assay results as given in the supplement of paper PMC8728848.
# The other results are listed elsewhere or left out.
# Assays:
# Assay in all cases: glycan array binding signal (z-score within array); higher = stronger binding
# Settings in all cases: glycan notation: IUPAC condensed, linker removed
# [1] = biological target: Neu5Ac(a2-6)Gal(b1-4)GlcNAc(b1-3)Gal(b1-4)GlcNAc(b1-3)GalNAc
# In short: (§1)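 The binding signal is a Z-score computed within each array. Data were drawn from 3228 arrays in the Consortium for Functional Glycomics database, restricted to those with a known protein sequence. Scores were averaged over arrays of the same protein sequence at different concentrations or buffers, and over linkers, and negative values can be taken as non-binding.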
# [2] = biological target: Neu5Ac(a2-6)Gal(b1-4)GlcNAc(b1-3)Gal(b1-4)GlcNAc(b1-3)[Neu5Ac(a2-6)Gal(b1-4)GlcNAc(b1-3)Gal(b1-4)GlcNAc(b1-6)]GalNAc
# In short: as §1
# [3] = biological target: Neu5Ac(a2-6)Gal(b1-4)GlcNAc(b1-3)Gal(b1-4)GlcNAc(b1-6)[Gal(b1-3)]GalNAc
# In short: as §1
# [4] = biological target: Neu5Ac(a2-6)Gal(b1-4)GlcNAc(b1-3)Gal(b1-4)[Fuc(a1-3)]GlcNAc(b1-3)Gal(b1-4)[Fuc(a1-3)]GlcNAc
# In short: as §1
# [5] = biological target: Neu5Ac(a2-6)Gal(b1-4)GlcNAc(b1-3)GalNAc
# In short: as §1
# [6] = biological target: Neu5Ac(a2-6)Gal(b1-4)GlcNAc(b1-3)[Neu5Ac(a2-6)Gal(b1-4)GlcNAc(b1-6)]GalNAc
# In short: as §1
# [7] = biological target: Neu5Ac(a2-6)Gal(b1-4)GlcNAc(b1-6)GalNAc
# In short: as §1
# [8] = biological target: Neu5Ac(a2-6)Gal(b1-4)GlcNAc(b1-6)[Gal(b1-3)GlcNAc(b1-3)]Gal(b1-4)Glc
# In short: as §1
# [9] = biological target: Neu5Ac(a2-6)Gal(b1-4)GlcNAc(b1-6)[Gal(b1-3)]GalNAc
# In short: as §1
# [10] = biological target: Neu5Ac(a2-6)Gal(b1-4)GlcNAc6S
# In short: as §1
# Neu5Ac(a2-6)GalNAc = biological target: Neu5Ac(a2-6)GalNAc
# In short: as §1
# [11] = biological target: Neu5Ac(a2-6)GalNAc(b1-4)GlcNAc
# In short: as §1
# [12] = biological target: Neu5Ac(a2-6)GalNAc(b1-4)GlcNAc6S
# In short: as §1
# [13] = biological target: Neu5Ac(a2-6)GlcNAc(b1-4)GlcNAc
# In short: as §1
# [14] = biological target: Neu5Ac(a2-6)GlcNAc(b1-4)GlcNAc(b1-4)GlcNAc
# In short: as §1
# Neu5Ac(a2-8)Neu5Ac = biological target: Neu5Ac(a2-8)Neu5Ac
# In short: as §1
# [15] = biological target: Neu5Ac(a2-8)Neu5Ac(a2-3)Gal(b1-3)GalNAc(b1-4)[Neu5Ac(a2-3)]Gal(b1-4)Glc
# In short: as §1
# [16] = biological target: Neu5Ac(a2-8)Neu5Ac(a2-3)Gal(b1-3)GalNAc(b1-4)[Neu5Ac(a2-8)Neu5Ac(a2-3)]Gal(b1-4)Glc
# In short: as §1
# [17] = biological target: Neu5Ac(a2-8)Neu5Ac(a2-3)Gal(b1-4)Glc
# In short: as §1
# [18] = biological target: Neu5Ac(a2-8)Neu5Ac(a2-3)Gal(b1-4)GlcNAc
# In short: as §1
# [19] = biological target: Neu5Ac(a2-8)Neu5Ac(a2-3)[Gal(b1-3)GalNAc(b1-4)]Gal(b1-4)Glc
# In short: as §1
# [20] = biological target: Neu5Ac(a2-8)Neu5Ac(a2-3)[GalNAc(b1-4)]Gal(b1-4)Glc
# In short: as §1
# [21] = biological target: Neu5Ac(a2-8)Neu5Ac(a2-8)Neu5Ac
# In short: as §1
# [22] = biological target: Neu5Ac(a2-8)Neu5Ac(a2-8)Neu5Ac(a2-3)Gal(b1-4)Glc
# In short: as §1
# [23] = biological target: Neu5Ac(a2-8)Neu5Ac(a2-8)Neu5Ac(a2-3)[Gal(b1-3)GalNAc(b1-4)]Gal(b1-4)Glc
# In short: as §1
# [24] = biological target: Neu5Ac(a2-8)Neu5Ac(a2-8)Neu5Ac(a2-3)[GalNAc(b1-4)]Gal(b1-4)Glc
# In short: as §1
# [25] = biological target: Neu5Ac(a2-8)Neu5Ac(a2-8)Neu5Ac(a2-8)Neu5Ac(a2-3)[GalNAc(b1-4)]Gal(b1-4)Glc
# In short: as §1
# [26] = biological target: Neu5Ac(a2-8)Neu5Gc(a2-3)Gal(b1-4)GlcNAc
# In short: as §1
# [27] = biological target: Neu5Ac(b2-6)Gal(b1-4)GlcNAc
# In short: as §1
# Neu5Ac(b2-6)GalNAc = biological target: Neu5Ac(b2-6)GalNAc
# In short: as §1
# [28] = biological target: Neu5Ac9Ac(a2-3)Gal(b1-3)GlcNAc
# In short: as §1
# [29] = biological target: Neu5Ac9Ac(a2-3)Gal(b1-4)GlcNAc
# In short: as §1
# [30] = biological target: Neu5Ac9Ac(a2-6)Gal(b1-4)GlcNAc
# In short: as §1
# [31] = biological target: Neu5Gc(a2-3)Gal(b1-3)GlcNAc
# In short: as §1
# [32] = biological target: Neu5Gc(a2-3)Gal(b1-3)[Fuc(a1-4)]GlcNAc
# In short: as §1
# Neu5Gc(a2-3)Gal(b1-4)Glc = biological target: Neu5Gc(a2-3)Gal(b1-4)Glc
# In short: as §1
# [33] = biological target: Neu5Gc(a2-3)Gal(b1-4)GlcNAc
# In short: as §1
# [34] = biological target: Neu5Gc(a2-3)Gal(b1-4)GlcNAc(b1-3)Gal(b1-4)GlcNAc(b1-2)Man(a1-3)[Neu5Gc(a2-3)Gal(b1-4)GlcNAc(b1-3)Gal(b1-4)GlcNAc(b1-2)Man(a1-6)]Man(b1-4)GlcNAc(b1-4)GlcNAc
# In short: as §1
# [35] = biological target: Neu5Gc(a2-3)Gal(b1-4)[Fuc(a1-3)]GlcNAc
# In short: as §1
# [36] = biological target: Neu5Gc(a2-6)Gal(b1-4)GlcNAc
# In short: as §1
# Neu5Gc(a2-6)GalNAc = biological target: Neu5Gc(a2-6)GalNAc
# In short: as §1
# [37] = biological target: Neu5Gc(a2-8)Neu5Ac(a2-3)Gal(b1-4)GlcNAc
# In short: as §1
# [38] = biological target: Neu5Gc(a2-8)Neu5Gc(a2-3)Gal(b1-4)GlcNAc
# In short: as §1
# [39] = biological target: Neu5Gc(a2-8)Neu5Gc(a2-3)Gal(b1-4)GlcNAc(b1-3)Gal(b1-4)GlcNAc
# In short: as §1
# [40] = biological target: Neu5Gc(a2-8)Neu5Gc(a2-6)Gal(b1-4)GlcNAc
# In short: as §1
# [41] = biological target: Neu5Gc(b2-6)Gal(b1-4)GlcNAc
# In short: as §1
binder,measurement,setting,value
PX9896A-bth-573-26-573 (Bacteroides thetaiotaomicron) (protein) ETNNLKTKEDMYKYFGTSKSMLTHVYSYMPQGYQLFATSGGIFTEDRYSMRDCASDDGEFGAYADNIQNTNNGNWSPIKTYDDSWTLYRGIRAANSFIAEIAQVDFTRYEHDGQYTNWMKQLKYFPYEARVLRAHYFFELARRYGDIAMPLEVLTEEEANTIGKTPFSEVISFIVSECDDAANNLPDSYVNEPGAEIGRVTKGFAMAVKSKALLYAASKLHNPSMDTELWKKSAKAAIDIINTGLYSLDPQESANNLDSKEVVLMRINGDDSDFEMFNLPLRMTAGTRTSSLIPYSNYPSQNLVDAFETVNGYKVTLENTGWVCEDPAFDPQSPYENRDKRFYRAILANGMSFKDYTIETFKGGADDGIVSQGGSPTGYFLRKYIQEATSFEPGKEAVSKHHWVIYRYAETLLTYAESMVNAFNDVNYTDETYKYSALWAINEVRKNADMPLIPSMGKDEFMERLYNEWRVEFAFEDHRFWDVRRWKIADTTQRELYGVKIEKQADGTFNFYKNLYETRNWRDCMYLYPIPQSELYKNTNLNPQNTGW,glycan array binding signal (z-score),[1],0.116
same,glycan array binding signal (z-score),[2],0.26
same,glycan array binding signal (z-score),[3],-0.751
same,glycan array binding signal (z-score),[4],0.205
same,glycan array binding signal (z-score),[5],0.363
same,glycan array binding signal (z-score),[6],-0.343
same,glycan array binding signal (z-score),[7],-0.549
same,glycan array binding signal (z-score),[8],-0.043
same,glycan array binding signal (z-score),[9],-0.133
same,glycan array binding signal (z-score),[10],0.076
same,glycan array binding signal (z-score),Neu5Ac(a2-6)GalNAc,-0.202
same,glycan array binding signal (z-score),[11],0.26
same,glycan array binding signal (z-score),[12],-0.474
same,glycan array binding signal (z-score),[13],-0.377
same,glycan array binding signal (z-score),[14],-0.369
same,glycan array binding signal (z-score),Neu5Ac(a2-8)Neu5Ac,0.403
same,glycan array binding signal (z-score),[15],1.03
same,glycan array binding signal (z-score),[16],0.31
same,glycan array binding signal (z-score),[17],-0.699
same,glycan array binding signal (z-score),[18],0.123
same,glycan array binding signal (z-score),[19],-0.791
same,glycan array binding signal (z-score),[20],-0.414
same,glycan array binding signal (z-score),[21],-0.168
same,glycan array binding signal (z-score),[22],-0.639
same,glycan array binding signal (z-score),[23],-0.398
same,glycan array binding signal (z-score),[24],-0.852
same,glycan array binding signal (z-score),[25],0.475
same,glycan array binding signal (z-score),[26],13.3
same,glycan array binding signal (z-score),[27],0.023
same,glycan array binding signal (z-score),Neu5Ac(b2-6)GalNAc,-0.726
same,glycan array binding signal (z-score),[28],-0.919
same,glycan array binding signal (z-score),[29],0.648
same,glycan array binding signal (z-score),[30],0.618
same,glycan array binding signal (z-score),[31],0.301
same,glycan array binding signal (z-score),[32],-0.896
same,glycan array binding signal (z-score),Neu5Gc(a2-3)Gal(b1-4)Glc,-0.11
same,glycan array binding signal (z-score),[33],-0.12
same,glycan array binding signal (z-score),[34],0.811
same,glycan array binding signal (z-score),[35],-0.356
same,glycan array binding signal (z-score),[36],-0.408
same,glycan array binding signal (z-score),Neu5Gc(a2-6)GalNAc,-0.244
same,glycan array binding signal (z-score),[37],0.178
same,glycan array binding signal (z-score),[38],-0.807
same,glycan array binding signal (z-score),[39],-0.689
same,glycan array binding signal (z-score),[40],-0.009
same,glycan array binding signal (z-score),[41],0.432
